Experimental data: the supplement of paper PMC4604168 (melanoma cell lines)
This is one part of the list. Many values rest on one well or one pass, so single values are uncertain.
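Note: cell number obtained by counting DAPI-stained nuclei in high-throughput microscope images with image analysis software, screen run in 1,536-well plates.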

The molecules below were run on WM3526 (assay: cell count relative to DMSO control; melanoma cells; higher = more viable cells). Settings: library dose: low library concentration; 72 h; first compound 0.4 µM.
In the case of `Cn1sc(=O)n(Cc2ccccc2)c1=O` + c1cc(-c2cnn3cc(-c4ccc(OCCN5CCCCC5)cc4)cnc23)ccn1 [Dorsomorphin] (partner dose 0.4 µM), the cell count is reported as 92.1%. In the case of `Cn1sc(=O)n(Cc2ccccc2)c1=O` + COCC[n+]1c2c(n(Cc3cnccn3)c1C)C(=O)c1ccccc1C2=O [YM155] (partner dose 0.0004 µM), the cell count is reported as 101%. In the case of `Cn1sc(=O)n(Cc2ccccc2)c1=O` + Nc1nc(F)nc2c1ncn2[C@@H]1O[C@H](CO)[C@@H](O)[C@@H]1O [fludarabine] (partner dose 0.2 µM), the cell count is reported as 23.2%. For `CCCCCCCCCCCCCCCCCCOP(=O)([O-])OC1CC[N+](C)(C)CC1` [Perifosine] + CC(=O)O[C@@]12CO[C@@H]1C[C@H](O)[C@@]1(C)C(=O)[C@H](O)C3=C(C)[C@@H](OC(=O)[C@H](O)[C@@H](NC(=O)OC(C)(C)C)c4ccccc4)C[C@@](O)([C@@H](OC(=O)c4ccccc4)[C@H]21)C3(C)C [Docetaxel] (partner dose 0.0001 µM), the cell count was 47.1%. For `CCCCCCCCCCCCCCCCCCOP(=O)([O-])OC1CC[N+](C)(C)CC1` [Perifosine] + C=C(c1ccc(C(=O)O)cc1)c1cc2c(cc1C)C(C)(C)CCC2(C)C [Bexarotene] (partner dose 2 µM), the cell count was 79.7%. For `Cn1sc(=O)n(Cc2ccccc2)c1=O` + CCN(CC)CCCCNc1ncc2cc(-c3cc(OC)cc(OC)c3)c(NC(=O)NC(C)(C)C)nc2n1 [PD173074] (partner dose 0.1 µM), the cell count was 88.6%. `C[C@@H](N)c1ccc(C(=O)Nc2ccnc3[nH]ccc23)cc1` + C[C@]1(c2nc3c(C(N)=O)cccc3[nH]2)CCCN1 [Veliparib] (partner dose 1.4 µM) was tested, and the cell count was 111%. `CCCCCCCCCCCCCCCCCCOP(=O)([O-])OC1CC[N+](C)(C)CC1` [Perifosine] + CCCCCCCCc1ccc(CCC(N)(CO)CO)cc1 [fingolimod] (partner dose 2 µM) gave a cell count of 89%. Work on `C[C@@H](N)c1ccc(C(=O)Nc2ccnc3[nH]ccc23)cc1` + CN(c1ncccc1CNc1nc(Nc2ccc3c(c2)CC(=O)N3)ncc1C(F)(F)F)S(C)(=O)=O [PF562271] (partner dose 0.08 µM) yielded a cell count of 105%. With `C[C@@H](N)c1ccc(C(=O)Nc2ccnc3[nH]ccc23)cc1` + COc1cc(Nc2ncc(F)c(Nc3ccc4c(n3)NC(=O)C(C)(C)O4)n2)cc(OC)c1OC [Tamatinib] (partner dose 0.4 µM) the cell count was 80.5%. For `C[C@@H](N)c1ccc(C(=O)Nc2ccnc3[nH]ccc23)cc1` + Cc1ccc(NC(=O)c2cccc(N(C)C)c2)cc1NC(=O)c1ccc(O)cc1 [ZM336372] (partner dose 2 µM), the cell count was 99.9%. For `CCCCCCCCCCCCCCCCCCOP(=O)([O-])OC1CC[N+](C)(C)CC1` [Perifosine] + Cc1cn(-c2cc(NC(=O)c3ccc(C)c(Nc4nccc(-c5cccnc5)n4)c3)cc(C(F)(F)F)c2)cn1 [nilotinib] (partner dose 0.2 µM), the cell count was 89.4%. In the case of `C[C@@H](N)c1ccc(C(=O)Nc2ccnc3[nH]ccc23)cc1` + Cn1c(=O)n(-c2ccc(C(C)(C)C#N)cc2)c2c3cc(-c4cnc5ccccc5c4)ccc3ncc21 [NVP-BEZ235] (partner dose 0.004 µM), the cell count is reported as 90.7%. For `Cn1sc(=O)n(Cc2ccccc2)c1=O` + CCCCCCCCc1ccc(CCC(N)(CO)CO)cc1 [fingolimod] (partner dose 2 µM), the cell count was 91.3%.

These molecules were tested on WM3619 in the same assay as above. Settings: library dose: low library concentration; 72 h; first compound 0.4 µM.
`Cn1sc(=O)n(Cc2ccccc2)c1=O` + Cc1cc(N2CCOCC2)cc2[nH]c(-c3c(NC[C@@H](O)c4cccc(Cl)c4)cc[nH]c3=O)nc12 [BMS536924] (partner dose 0.2 µM) was tested, and the cell count was 94.6%. `CCCCCCCCCCCCCCCCCCOP(=O)([O-])OC1CC[N+](C)(C)CC1` [Perifosine] + C[C@@H]1CCN(C(=O)CC#N)C[C@@H]1N(C)c1ncnc2[nH]ccc12 [CP690550] (partner dose 1 µM) gave a cell count of 93.2%. `CCCCCCCCCCCCCCCCCCOP(=O)([O-])OC1CC[N+](C)(C)CC1` [Perifosine] + OCCn1cc(-c2cnc3nnn(Cc4ccc5ncccc5c4)c3n2)cn1 [PF04217903] (partner dose 1 µM) was tested, and the cell count was 80.1%. `CCCCCCCCCCCCCCCCCCOP(=O)([O-])OC1CC[N+](C)(C)CC1` [Perifosine] + O=C(O)c1ccc2c(c1)nc(Nc1cccc(Cl)c1)c1ccncc12 [CX4945] (partner dose 0.4 µM) showed a cell count of 98.3%. `Cn1sc(=O)n(Cc2ccccc2)c1=O` + O=C(CCCCCCC(=O)Nc1ccccc1)NO [vorinostat] (partner dose 0.08 µM) was tested, and the cell count was 82.8%. `C[C@@H](N)c1ccc(C(=O)Nc2ccnc3[nH]ccc23)cc1` + CC(C)C[C@H](NC(=O)[C@H](Cc1ccccc1)NC(=O)c1cnccn1)B(O)O [Bortezomib] (partner dose 0.001 µM) gave a cell count of 27.9%. Work on `CCCCCCCCCCCCCCCCCCOP(=O)([O-])OC1CC[N+](C)(C)CC1` [Perifosine] + O=c1[nH]nc(Sc2ncc([N+](=O)[O-])s2)n1-c1ccc2c(c1)OCCO2 [BI78D3] (partner dose 0.2 µM) yielded a cell count of 109%. Work on `C[C@@H](N)c1ccc(C(=O)Nc2ccnc3[nH]ccc23)cc1` + Cc1cc([N+](=O)[O-])ccc1NS(=O)(=O)c1cc(Cl)ccc1Cl [FH535] (partner dose 1 µM) yielded a cell count of 112%. With `C[C@@H](N)c1ccc(C(=O)Nc2ccnc3[nH]ccc23)cc1` + c1cc(-c2cnn3cc(-c4ccc(OCCN5CCCCC5)cc4)cnc23)ccn1 [Dorsomorphin] (partner dose 0.4 µM) the cell count was 93.8%. In the case of `CCCCCCCCCCCCCCCCCCOP(=O)([O-])OC1CC[N+](C)(C)CC1` [Perifosine] + O=C(/C=C/c1cccnc1)NCCCCC1CCN(C(=O)c2ccccc2)CC1 [FK866] (partner dose 0.01 µM), the cell count is reported as 83.2%. For `Cn1sc(=O)n(Cc2ccccc2)c1=O` + CN(NC(=O)CC(=O)NN(C)C(=S)c1ccccc1)C(=S)c1ccccc1 [STA4783] (partner dose 0.006 µM), the cell count was 66.3%. With `CCCCCCCCCCCCCCCCCCOP(=O)([O-])OC1CC[N+](C)(C)CC1` [Perifosine] + COc1cc2c(Oc3ccc4[nH]c(C)cc4c3F)ncnc2cc1OCCCN1CCCC1 [cediranib] (partner dose 0.4 µM) the cell count was 119%. For `C[C@@H](N)c1ccc(C(=O)Nc2ccnc3[nH]ccc23)cc1` + O=C(Nc1ccccc1)c1cc([N+](=O)[O-])ccc1Cl [GW9662] (partner dose 2 µM), the cell count was 119%. For `CCCCCCCCCCCCCCCCCCOP(=O)([O-])OC1CC[N+](C)(C)CC1` [Perifosine] + COc1ccc(Cl)c(Nc2nc3ccccc3nc2NS(=O)(=O)c2cccc(NC(=O)C(C)(C)N)c2)c1 [XL147] (partner dose 0.8 µM), the cell count was 91.3%. Molecule `CCCCCCCCCCCCCCCCCCOP(=O)([O-])OC1CC[N+](C)(C)CC1` [Perifosine] + COC(=O)c1sccc1S(=O)(=O)Nc1ccc(Nc2ccccc2)cc1OC [GSK0660] (partner dose 1 µM) has a cell count of 105%. `Cn1sc(=O)n(Cc2ccccc2)c1=O` + NC(=O)Nc1cc(-c2cccc(F)c2)sc1C(=O)N[C@H]1CCCNC1 [AZD7762] (partner dose 0.02 µM) showed a cell count of 85.1%. Molecule `C[C@@H](N)c1ccc(C(=O)Nc2ccnc3[nH]ccc23)cc1` + CS(=O)(=O)CCNCc1ccc(-c2ccc3ncnc(Nc4ccc(OCc5cccc(F)c5)c(Cl)c4)c3c2)o1 [lapatinib] (partner dose 0.8 µM) has a cell count of 59.8%. Work on `Cn1sc(=O)n(Cc2ccccc2)c1=O` + C[C@]1(c2nc3c(C(N)=O)cccc3[nH]2)CCCN1 [Veliparib] (partner dose 1.4 µM) yielded a cell count of 133%. Work on `C[C@@H](N)c1ccc(C(=O)Nc2ccnc3[nH]ccc23)cc1` + COc1ccc(Cl)c(Nc2nc3ccccc3nc2NS(=O)(=O)c2cccc(NC(=O)C(C)(C)N)c2)c1 [XL147] (partner dose 0.8 µM) yielded a cell count of 78.9%. With `C[C@@H](N)c1ccc(C(=O)Nc2ccnc3[nH]ccc23)cc1` + Nc1nc(F)nc2c1ncn2[C@@H]1O[C@H](CO)[C@@H](O)[C@@H]1O [fludarabine] (partner dose 0.2 µM) the cell count was 97.3%. `C[C@@H](N)c1ccc(C(=O)Nc2ccnc3[nH]ccc23)cc1` + Clc1ccc(Nc2nnc(Cc3ccncc3)c3ccccc23)cc1 [vatalanib] (partner dose 2 µM) was tested, and the cell count was 60.9%. Work on `C[C@@H](N)c1ccc(C(=O)Nc2ccnc3[nH]ccc23)cc1` + O=C(O)C(=O)Nc1sc2c(c1C(=O)O)CCNC2 [TCS401] (partner dose 1.66667 µM) yielded a cell count of 99.5%. `Cn1sc(=O)n(Cc2ccccc2)c1=O` + CO[C@H]1C[C@@H]2CC[C@@H](C)[C@@](O)(O2)C(=O)C(=O)N2CCCC[C@H]2C(=O)O[C@H]([C@H](C)C[C@@H]2CC[C@@H](OCCO)[C@H](OC)C2)CC(=O)[C@H](C)/C=C(\C)[C@@H](O)[C@@H](OC)C(=O)[C@H](C)C[C@H](C)/C=C/C=C/C=C/1C [everolimus] (partner dose 0.02 µM) showed a cell count of 77%. `CCCCCCCCCCCCCCCCCCOP(=O)([O-])OC1CC[N+](C)(C)CC1` [Perifosine] + Cc1cc(N2CCOCC2)cc2[nH]c(-c3c(NC[C@@H](O)c4cccc(Cl)c4)cc[nH]c3=O)nc12 [BMS536924] (partner dose 0.2 µM) showed a cell count of 91.5%. `C[C@@H](N)c1ccc(C(=O)Nc2ccnc3[nH]ccc23)cc1` + CC(=O)O[C@@]12CO[C@@H]1C[C@H](O)[C@@]1(C)C(=O)[C@H](O)C3=C(C)[C@@H](OC(=O)[C@H](O)[C@@H](NC(=O)OC(C)(C)C)c4ccccc4)C[C@@](O)([C@@H](OC(=O)c4ccccc4)[C@H]21)C3(C)C [Docetaxel] (partner dose 0.0001 µM) was tested, and the cell count was 64.5%.
